Source: PubChem BioAssay AID1476 (National Center for Advancing Translational Sciences (NCATS), 2009)
Out of some 200,000 compounds screened, about 4,500 (2.2%) were called active. Inconclusive means that the source gave no clear call. Such entries were picked first, then a sample of the others. The call rests on the fitted dose curve; in most records, active means well fitted inhibition curve with a large enough effect; inconclusive means small, poorly fitted or top-dose-only effect, or effect the other way; inactive means flat fitted curve, though single readings scatter. Where the call is inconclusive, the potency comes from a doubtful curve fit.

molecular target: Cruzipain (Trypanosoma cruzi) (UniProt P25779); experiment: qHTS Assay for Promiscuous and Specific Inhibitors of Cruzain (without detergent); settings: purified cruzain, Z-FR-AMC fluorescence, no detergent; further: nearly all actives have a fitted effect of over 40% in size;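 on max response, negative = inhibition: plate controls were enzyme without inhibitor for no effect and buffer without enzyme for full effect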
Outline: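 Detergent-free condition (0.00005% Triton X-100) in acetate buffer pH 5.5 with DTT. 1.5 nM enzyme and compound were pre-mixed 15 min, then 2 uM Z-FR-AMC substrate added; reaction progress from fluorescence change between first and third reads (60 s).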
Potency means the concentration at half of the fitted maximal effect; tags describe the fitted curve by direction and shape.

Chain of UniProt P25779 (P25779 whole entry, looked up): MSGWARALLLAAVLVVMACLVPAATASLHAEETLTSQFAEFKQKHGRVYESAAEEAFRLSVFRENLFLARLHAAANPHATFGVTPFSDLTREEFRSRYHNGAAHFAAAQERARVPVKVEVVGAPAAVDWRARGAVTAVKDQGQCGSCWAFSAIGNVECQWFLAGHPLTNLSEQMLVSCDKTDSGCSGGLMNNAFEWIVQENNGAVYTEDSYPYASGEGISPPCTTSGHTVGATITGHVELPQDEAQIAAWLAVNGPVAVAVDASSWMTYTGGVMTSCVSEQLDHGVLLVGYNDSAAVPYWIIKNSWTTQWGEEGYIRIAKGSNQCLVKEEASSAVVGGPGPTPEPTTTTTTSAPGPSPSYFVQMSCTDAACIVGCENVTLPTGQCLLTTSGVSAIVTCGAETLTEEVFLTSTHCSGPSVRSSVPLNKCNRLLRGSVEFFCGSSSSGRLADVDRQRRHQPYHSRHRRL

Compound	Potency	max response, negative = inhibition
CC(C)CNS(=O)(=O)c1cc(C(=O)OCC(=O)c2ccc3c(c2)OCCO3)c(Cl)cc1Cl	inconclusive: 31.6 µM [inhibitor, single point]	–
CC(C)CN(Cc1c(O)ccc2c3c(c(=O)oc12)CCC3)CC(C)C	–	inactive: -99.4%
CC1=C(C(=O)OCc2ccccc2)C(c2ccc([N+](=O)[O-])cc2)NC(=O)N1CCCCCC(=O)O (centres undefined)	inconclusive: 39.8 µM [activator, single point]	–
N#Cc1ccccc1NC(=O)Cn1cnc2onc(-c3cccc(F)c3)c2c1=O	–	inactive: 4.85%
O=C(COc1ccccc1F)Nc1ccc(-c2nc3ccccc3s2)cc1	inconclusive: 3.98 µM [inhibitor, single point]	–
CCc1cccc(NC(=O)Nc2csc3c2CCCC3)c1	inconclusive: 39.8 µM [activator, partial curve]	–
Cc1ccc(C)c(N2C(=O)N(Cc3cc(=O)n4ccccc4n3)c3ccccc3S2(=O)=O)c1	inconclusive: 39.8 µM [activator, single point]	–
CCOC(=O)c1c(C)oc2ncnc(Nc3ccc(OCC)cc3)c12	–	inactive: -14%
Cc1ccc(-n2nc3c(c2NC(=O)/C=C\c2ccc4c(c2)OCO4)CSC3)cc1	active: 31.6 µM	–
COC(=O)c1ccccc1NC(=O)Cn1c(=O)n(Cc2ccc(C(=O)NCc3ccc4c(c3)OCO4)cc2)c(=O)c2ccccc21	–	inactive: 9.61%
Cc1c(Cl)c([N+](=O)[O-])nn1Cc1ccc(C(=O)N/N=C\c2cccc(Br)c2)o1	inconclusive: 25.1 µM [inhibitor, single point]	–
CCNc1oc(-c2ccc(OC)cc2)nc1S(=O)(=O)c1ccc(Br)cc1	–	inactive: -0.703%
Cc1c(C(=O)N2c3ccccc3Sc3ccccc32)cccc1[N+](=O)[O-]	inconclusive: 39.8 µM [inhibitor, single point]	–
COc1nnc(-c2ccc(N3CCOCC3)c(NC(=O)c3ccc(C)cc3)c2)c2ccccc12	inconclusive: 25.1 µM [activator, single point]	–
CCN1CCN(C(=O)N[C@@H](C(=O)N[C@@H]2C(=O)N3[C@@H]2SC(C)(C)[C@@H]3C(=O)O)c2ccccc2)C(=O)C1=O	inconclusive: 39.8 µM [activator, single point]	–
COc1ccc(-c2cc(-c3ccc(OC)cc3)c(C#N)c(SC)n2)cc1	inconclusive: 20 µM [inhibitor, partial curve, poor fit]	–
O=C(CN1CCCC1)N1c2ccccc2Sc2ccccc21	inconclusive: 12.6 µM [inhibitor, partial curve]	–
C=CCOC(=O)C(C#N)c1nc2ccccc2nc1N1CCN(c2ccccc2OC)CC1 (centres undefined)	inconclusive: 39.8 µM [inhibitor, single point]	–
CCn1cc(C(=O)N2CCN(c3cccc(Cl)c3)CC2)c(=O)c2cc(S(=O)(=O)N3CCCCC3)ccc21	inconclusive: 31.6 µM [activator, single point]	–
O=C(Nc1nc2c(cc3c4c(cccc42)CC3)s1)c1ccccc1Cl	inconclusive: 39.8 µM [inhibitor, single point]	–

Compound	Potency	max response, negative = inhibition
Cc1ccc(C)c(CN2C(=O)c3ccccc3S(=O)c3ccc(C(=O)NCc4ccccc4)cc32)c1 (centres undefined)	inconclusive: 31.6 µM [inhibitor, single point]	–
O=C(C/C=N/OCc1ccc(F)cc1Cl)c1cnc(-c2ccccc2)s1	inconclusive: 12.6 µM [inhibitor, partial curve]	–
O=C(O)CC[C@@H](C(=O)O)N1C(=O)c2ccccc2C1=O	inconclusive: 39.8 µM [inhibitor, single point]	–
CS(=O)(=O)N(CC(=O)N1CCN(c2ccccc2)CC1)Cc1ccc(Cl)cc1	inconclusive: 39.8 µM [activator, single point]	–
CCn1c(C(=O)N2CCC(C(=O)NCCc3ccc(OC)cc3OC)CC2)cc2sccc21	inconclusive: 20 µM [activator, partial curve]	–
Cc1cc(/C=N/NC(=O)Cn2c3ccccc3c(=O)c3ccccc32)c(C)n1-c1ccccc1	active: 15.8 µM	–
CCc1cc2c(C)cc(=O)oc2cc1OC(=O)C1CCCN1C(=O)OC(C)(C)C (centres undefined)	inconclusive: 31.6 µM [activator, single point]	–
Cn1nc(C(F)(F)F)c(C(=O)Nc2cccc(Cl)c2)c1Cl	–	inactive: 7.23%
CCN(CC)CCNC(=O)c1ccc2c(c1)sc1nc(-c3ccc(F)cc3)cn12	–	inactive: -4.49%
FC(F)(F)c1cccc(-n2nnnc2C2(N3CCOCC3)CCCCC2)c1	inconclusive: 20 µM [activator, single point]	–
CCN1CCN(c2c(S(=O)(=O)c3ccc(C)c(C)c3)cnc3cc(OC)c(OC)cc23)CC1	–	inactive: -1.56%
CCN(CC)C(=O)c1sc2c(c1C)c(=O)n(-c1ccccc1)c(=O)n2CC(=O)Nc1ccc(C)cc1C	inconclusive: 39.8 µM [activator, single point]	–
CCOc1ccc(CC(=O)NCCc2sc3nc(-c4ccc(OC)cc4)nn3c2C)cc1	inconclusive: 31.6 µM [activator, single point]	–
CCCN(CC1CC1)C(=O)CSc1ncnc2sc(C)c(C)c12	inconclusive: 3.98 µM [inhibitor, single point]	–
Cc1ccc(-c2cc(-c3ccccc3)[nH]c(=S)c2C#N)cc1	active: 15.8 µM	–
CC1=C(C)/C(=N\OC(=O)/C=C/c2ccccc2)C=CC1=O	inconclusive: 0.794 µM [inhibitor, full curve, poor fit]	–
CCOC(=O)c1cc(-c2ccccc2)n(CC(=O)N(C)c2ccc(OC)cc2)c1C	inconclusive: 31.6 µM [activator, single point]	–
COc1ccc(/C=C(/NC(=O)c2ccccc2)C(=O)N/N=C/c2ccc3c(c2)OCO3)cc1OC	inconclusive: 39.8 µM [activator, single point]	–
COc1cc(-c2nc(Cn3nnc(C(=O)Nc4cc(C)cc(C)c4)c3C)c(C)o2)cc(OC)c1OC	inconclusive: 3.98 µM [activator, single point]	–
